From PubChem BioAssay AID488969 (Vanderbilt High Throughput Screening Facility, 2010)
Values joined by “and” are separate entries in the source; they are usually repeats but may differ in a detail not shown here. Equal entries are not always repeated. In all, about 110,000 compounds were measured (“z-score”: median about -0.1, highest 2% from about 2 on). The list shows a part of the results. Active and inactive are the calls of the source.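 How the source made its calls: active means z-score in the third read window above 3 or below -3; inactive means the rest.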

Each compound was assayed against Metabotropic glutamate receptor 8 (Rattus norvegicus) (UniProt P70579) (assay: rat mGluR8 modulators via GIRK flux, primary screen, cell-based, thallium flux, HTS (AID 488969)). Settings: HEK293 rat mGluR8, GIRK (G protein-gated inwardly rectifying potassium channel) thallium flux, FluoZin2; at 10 µM; stronger effect = higher value; submaximal glutamate (EC20) added with thallium.
Chain of UniProt P70579 (P70579 whole entry, looked up): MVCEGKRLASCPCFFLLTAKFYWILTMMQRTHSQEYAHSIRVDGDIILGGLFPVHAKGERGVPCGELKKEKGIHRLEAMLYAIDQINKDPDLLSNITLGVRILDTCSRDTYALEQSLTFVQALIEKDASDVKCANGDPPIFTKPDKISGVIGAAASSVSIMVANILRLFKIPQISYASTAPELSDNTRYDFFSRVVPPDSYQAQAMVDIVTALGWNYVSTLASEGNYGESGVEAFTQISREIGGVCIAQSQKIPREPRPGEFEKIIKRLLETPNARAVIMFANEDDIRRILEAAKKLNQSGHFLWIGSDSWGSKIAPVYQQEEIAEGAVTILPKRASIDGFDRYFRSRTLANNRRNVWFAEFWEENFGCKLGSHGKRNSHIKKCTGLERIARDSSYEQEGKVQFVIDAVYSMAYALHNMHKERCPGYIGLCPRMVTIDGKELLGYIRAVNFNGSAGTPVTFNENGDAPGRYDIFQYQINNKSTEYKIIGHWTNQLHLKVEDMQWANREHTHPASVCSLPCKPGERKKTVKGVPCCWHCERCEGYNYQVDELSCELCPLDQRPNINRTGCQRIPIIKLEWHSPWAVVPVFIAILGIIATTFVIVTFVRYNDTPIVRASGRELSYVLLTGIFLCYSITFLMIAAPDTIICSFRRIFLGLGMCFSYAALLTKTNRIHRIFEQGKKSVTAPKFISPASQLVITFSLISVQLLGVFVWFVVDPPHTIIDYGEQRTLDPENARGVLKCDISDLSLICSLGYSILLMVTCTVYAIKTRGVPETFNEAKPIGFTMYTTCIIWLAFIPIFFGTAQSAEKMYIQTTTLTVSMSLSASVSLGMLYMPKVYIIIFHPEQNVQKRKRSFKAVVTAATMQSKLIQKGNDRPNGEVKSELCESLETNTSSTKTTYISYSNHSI

SMILES | z-score
CC(=O)OCCCNc1cc(SCc2ccco2)c2nonc2c1[N+](=O)[O-] | -0.639
CCCNC(=O)Cn1c(=O)/c(=C\c2ccc(-c3ccc([N+](=O)[O-])cc3)o2)s/c1=C\C(=O)C(C)(C)C | -0.329
Cc1cc(NC(=O)COC(=O)c2cc(S(=O)(=O)N3CCOCC3)ccc2N2CCCCC2)no1 | -0.153
OCCN(C=NC1=NN(c2cccc(C(F)(F)F)c2)CC1)CCO | -1.59
COC(=O)c1nn(-c2ccc3c(c2)OCO3)cc1O | -0.00183
O=C(Cn1c(=O)n(-c2cccc(Cl)c2)c(=O)n1CC(=O)N1CCCCC1)N1CCCCC1 | -0.127
CCc1ccc2nc(NC(=O)c3ccc4c(=O)[nH]c(CN5CCOCC5)nc4c3)sc2c1 | -0.023
COCCn1c(C)cc(C(=O)COC(=O)c2c(C)nn(Cc3ccccc3)c2C)c1C | -0.149
Cc1ccc(N=Nc2ccc(O)c(/C=N\NC(=O)c3ccc(N)cc3)c2)cc1C | 0.032
O=C1CCC([N+](=O)[O-])C(c2cc3c(cc2Br)OCO3)N1 (stereo not drawn) | -0.0845
COc1ccc2c(C=Nc3c(C)n(C)n(-c4ccccc4)c3=O)c(O)n(Cc3ccco3)c(=O)c2c1 | -0.732 and -0.296
Cc1cc(N2CCN(c3ccccc3)CC2)nc(N)n1 | 0.126
Cc1cccc(Nc2ncccc2C(=O)NCc2cccs2)c1C | -0.438
Nc1n[nH]c(N)c1N=Nc1ccc(Cl)cc1 | 0.429
Cc1ccc(C(=O)Nc2cccc(N(C)S(C)(=O)=O)c2)cc1S(=O)(=O)Nc1ccccc1 | -0.322
C=CCOc1nc(N(C)C)nc(N(C)C)n1 | -0.0718
CCC(C)N1CC(C(=O)O)CC1=O (stereo not drawn) | -0.0459
COc1ccccc1N1CCN(C(=O)C(=O)N/N=C/c2cccc(O)c2)CC1 | -0.082
Cc1ccc2nc(NC(=S)NC(=O)c3cccs3)sc2c1 | active: 4.64
COc1cccc(C(=O)NC(=S)Nc2cccnc2)c1 | 0.138
COc1ccc(/C=N/NC(=O)c2[nH]c(C)c(C(=O)N/N=C/c3ccc(OC)cc3)c2C)cc1 | -0.895
O=C(CCn1cccc1)Nc1nccs1 | 0.442
N#CC1=C(SCC(=O)NC23CC4CC(CC(C4)C2)C3)NC(=O)C(C#N)C12CCCCC2 (stereo not drawn) | 0.305
COc1ccc(C2NC(=S)N3C(c4ccc(OC)cc4)NC(=S)N23)cc1 (stereo not drawn) | -0.119
CCC(=O)N1CCN(c2ccc(Cl)cc2NC(=O)c2ccc3c(c2)OCCO3)CC1 | -1.29
c1ccc(CNc2ncnc3c2cnn3Cc2ccccc2)cc1 | -2.03
O=S(=O)(N/N=C\c1cccnc1)c1ccccc1 | 0.554

SMILES | z-score
O=c1c(Cl)c(N2CCN(c3ccc(F)cc3)CC2)cnn1C12CC3CC(CC(C3)C1)C2 | -0.336
O=C(Nc1cc(C(F)(F)F)ccc1N1CCOCC1)c1ccc(F)cc1 | 0.436
COC(=O)CCCCCCCCCC[N+]1(C)CCCCC1 | -0.454
O=C(COc1ccc2ccccc2c1)N1CCN(C(=O)c2cccs2)CC1 | -0.284
CCOC(=O)c1c(C)[nH]c(C(=O)OCC(=O)Nc2ccc(OC)c(Cl)c2)c1C | 0.0115
COC(=O)c1ccc(NC(=O)CN(c2ccc(C)cc2)S(=O)(=O)c2c(C)nn(C)c2C)cc1 | 1.19
Nc1ccc(Sc2nnnn2-c2ccccc2)c(Cl)c1 | 0.409
N#Cc1cnn(-c2nc(SCc3ccccc3)nc3sc4c(c23)CCCC4)c1N | -1.4
CN(C)C(=O)N1CCC(C(=O)NCc2ccccc2Cl)CC1 | 0.142
O=C(c1ccccc1S(=O)(=O)NCC(O)COc1ccc([N+](=O)[O-])cc1)N1CCCCC1 (stereo not drawn) | 0.0392
CCOc1cc(/C=C2/NC(=O)N(CC(=O)Nc3cccc(C)c3)C2=O)ccc1O | -0.784
Cc1c(C#N)c(N)nc2c3c(sc12)NC(=O)CC3c1ccccc1 (stereo not drawn) | 0.413
CCC(=O)NC(=S)Nc1ccc(NC(=O)c2ccc(C)c([N+](=O)[O-])c2)cc1 | 0.445
Nc1ccnc(C(F)(F)F)c1C(=O)c1ccccc1 | 0.223
Cc1c(O)c(CN2CCCCC2)cc2c3c(c(=O)oc12)CCC3 | -0.0887
O=C(NC1CCCCCC1)c1cccc(COCC(F)(F)F)c1 | -0.173
Cc1cnc(NC(=O)CCCc2nc3ccccc3s2)s1 | -0.325
CN1C(=O)CC(Sc2ncccc2C(=O)O)C1=O (stereo not drawn) | 0.323
COc1cccc(N2CCN(C(=O)CCn3c(=S)[nH]c4cc5c(cc4c3=O)OCO5)CC2)c1 | -0.387
Cc1ccc(C(=O)N/N=C/c2ccc(-c3ccccc3[N+](=O)[O-])o2)cn1 | -0.102
COc1ccc(Cn2cnc3c([N+](=O)[O-])c(C)c(C)cc32)cc1 | -0.663
CSc1c(CC(=O)Nc2ccccc2Cl)n(Cc2ccccc2)c2ccccc12 | 0.0731
CC(NC(=O)CCCN1C(=O)c2ccccc2C1=O)c1ccc2c(c1)CCCC2 (stereo not drawn) | -0.0171
O=C(NCCCN1CCN(c2cccc(Cl)c2)CC1)c1cccc(N2CCCC2=O)c1 | active: -3.25
COc1ccc(S(=O)(=O)Nc2cc(Sc3ncn[nH]3)c(O)c3ccccc23)cc1 | 0.366
CCCCCC/C(C)=C1/SC(=S)NC1=O | -1.89
